# The supplement of paper PMC8728848
# The list shows a part of the results.
# B1: Epa1-NP-mutant-Y228A (Candida glabrata), Q6VBJ0 (protein)
# chain: MILNPALFLNKCVCIYTTLILLLLTNGGYATSSNDISLASKDPTTFPLGCSPDITTPKKGLSMELYSYDFRKKGSYPCWDAAYLDPNYPRTGYKSHRLLAKVDGVTGNINFYYHATKGCTPQLGHLPASYNYPKPLTMTNFTMLLYGYFRPKVTGFHTFTISADDLLFVNFGAGNAFDCCRRDSSADHFGNYQAYAIWGSKTAKDELTVHLDAGVYYPIRLFYNNREADGALSFTFKTESNENTVSDFSEYFFSLDDTEEGCPGLISYDSSCASVKTSKIIGIDYHTETPNENLVPITKTIYHLGIPCTGTTTTPLCGSGFYDPLANKCVTINTSSTSSVTKTTSHTTSKEVSFHSSISSQKTLIPKSIPSPYGPIKSQSIPTEMETSSEISSSEYAFSDVISTPSHSPYTKKHSSLNSSSYTSTVIHSLTSYSISQGIFSTSLSEQNITSKSSTDKFSTATSMSNNITQSSIIISQFSTNNENYTTTSMHTSSDKISTETLNNSISTTTSILFSNSSTILKNNTTIISSDKDTHYHPVNPTIVCSTNKTEIICASITQPSISNSNNHWSSSVLKFNSTTVRSTLPSSAGSNETSINVPFSSSTESNTSTSSTSTSNSKMVRSTLPSSAGSNETSISVPFSSSTESNTSTSSTSTSNSKMVRSTLPSSAGSNETSINVPFSSSTESNTSTSSTSTSNSKTVRSTPFSSAGIIMTSLSQRNNKSASSYASSNSKCYNTADSCRKVHSTPSYLLTSSYTSEGVDYDCSLVSTKLKINDTNCVNNKHTTKSCLKTSVTTTIPTLEIKTARKSSSNTIGLHSYPTSSPNKSISSAPIIGYISSFKTIKTASPSYQTSDLTTITTITSLNNPGSTAVENTHESNDKSRKTSSNDISSKHSVIKETKDAVESSNKSHQTNTLKCSSIIIASSSHNSYESLGGTTLTLTLSKVYSPQNNDTLPFLEISEVNPSRTVLPESSKMMQYLTSTEERNKTARNTIATNIVSISTFHFEGEGNAIRMGYTQLLLMLIGIIVMNIGT
# Legend:
# Assay in all cases: glycan array binding signal (z-score within array); higher = stronger binding
# Settings in all cases: glycan notation: IUPAC condensed, linker removed; mutation: Y228A
# [1] = target: Fuc(a1-2)[GalNAc(b1-3)]Gal
# In short: (§1)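 The binding signal is a Z-score computed within each array and averaged over linkers. Arrays of the same protein sequence at different concentrations or buffers were also averaged together. Data originate from 3228 arrays in the Consortium for Functional Glycomics database, kept only where the protein sequence was available.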
# [2] = target: Fuc(a1-3)GlcNAc
# In short: as §1
# [3] = target: Fuc(a1-3)[Gal(b1-4)]Glc6S
# In short: as §1
# [4] = target: Fuc(a1-3)[Gal(b1-4)]GlcNAc
# In short: as §1
# [5] = target: Fuc(a1-3)[Gal(b1-4)]GlcNAc(b1-2)Man
# In short: as §1
# [6] = target: Fuc(a1-3)[Gal(b1-4)]GlcNAc(b1-2)Man(a1-3)[Fuc(a1-3)[Gal(b1-4)]GlcNAc(b1-2)Man(a1-6)]Man(b1-4)GlcNAc(b1-4)GlcNAc
# In short: as §1
# [7] = target: Fuc(a1-3)[Gal(b1-4)]GlcNAc(b1-2)Man(a1-3)[Fuc(a1-3)[Gal(b1-4)]GlcNAc(b1-2)Man(a1-6)]Man(b1-4)GlcNAc(b1-4)[Fuc(a1-6)]GlcNAc
# In short: as §1
# [8] = target: Fuc(a1-3)[Gal(b1-4)]GlcNAc(b1-3)Gal(b1-3)[Fuc(a1-4)]GlcNAc
# In short: as §1
# [9] = target: Fuc(a1-3)[Gal(b1-4)]GlcNAc(b1-3)Gal(b1-4)[Fuc(a1-3)]GlcNAc
# In short: as §1
# [10] = target: Fuc(a1-3)[Gal(b1-4)]GlcNAc(b1-3)Gal(b1-4)[Fuc(a1-3)]GlcNAc(b1-3)Gal(b1-4)[Fuc(a1-3)]GlcNAc
# In short: as §1
# [11] = target: Fuc(a1-3)[Gal(b1-4)]GlcNAc(b1-3)GalNAc
# In short: as §1
# [12] = target: Fuc(a1-3)[Gal(b1-4)]GlcNAc(b1-6)GalNAc
# In short: as §1
# [13] = target: Fuc(a1-3)[Gal(b1-4)]GlcNAc(b1-6)[Gal(b1-3)GlcNAc(b1-3)]Gal(b1-4)Glc
# In short: as §1
# [14] = target: Fuc(a1-3)[Gal(b1-4)]GlcNAc6S
# In short: as §1
# [15] = target: Fuc(a1-3)[Gal3S(b1-4)]Glc
# In short: as §1
# [16] = target: Fuc(a1-3)[Gal3S(b1-4)]GlcNAc
# In short: as §1
# [17] = target: Fuc(a1-3)[Gal3S(b1-4)]GlcNAc6S
# In short: as §1
# [18] = target: Fuc(a1-3)[GalNAc(b1-4)]GlcNAc
# In short: as §1
# [19] = target: Fuc(a1-3)[GalNAc(b1-4)]GlcNAc6S
# In short: as §1
# [20] = target: Fuc(a1-4)GlcNAc
# In short: as §1
# [21] = target: Fuc(b1-3)GlcNAc
# In short: as §1
# [22] = target: Gal(a1-2)Gal
# In short: as §1
# [23] = target: Gal(a1-3)Gal
# In short: as §1
# [24] = target: Gal(a1-3)Gal(b1-3)GlcNAc
# In short: as §1
# [25] = target: Gal(a1-3)Gal(b1-3)GlcNAc(b1-2)Man
# In short: as §1
# [26] = target: Gal(a1-3)Gal(b1-3)GlcNAc(b1-2)Man(a1-3)[Gal(a1-3)Gal(b1-3)GlcNAc(b1-2)Man(a1-6)]Man(b1-4)GlcNAc(b1-4)GlcNAc
# In short: as §1
# [27] = target: Gal(a1-3)Gal(b1-3)GlcNAc(b1-3)GalNAc
# In short: as §1
# [28] = target: Gal(a1-3)Gal(b1-3)GlcNAc(b1-6)GalNAc
# In short: as §1
# [29] = target: Gal(a1-3)Gal(b1-3)[Fuc(a1-4)]GlcNAc(b1-2)Man(a1-3)[Gal(a1-3)Gal(b1-3)[Fuc(a1-4)]GlcNAc(b1-2)Man(a1-6)]Man(b1-4)GlcNAc(b1-4)GlcNAc
# In short: as §1
# [30] = target: Gal(a1-3)Gal(b1-4)Glc
# In short: as §1
binder,measurement,setting,value
B1,glycan array binding signal (z-score),[1],-0.285
same,glycan array binding signal (z-score),[2],-0.263
same,glycan array binding signal (z-score),[3],0.101
same,glycan array binding signal (z-score),[4],-0.24
same,glycan array binding signal (z-score),[5],-0.215
same,glycan array binding signal (z-score),[6],-0.024
same,glycan array binding signal (z-score),[7],-0.302
same,glycan array binding signal (z-score),[8],-0.303
same,glycan array binding signal (z-score),[9],-0.214
same,glycan array binding signal (z-score),[10],-0.195
same,glycan array binding signal (z-score),[11],-0.25
same,glycan array binding signal (z-score),[12],-0.289
same,glycan array binding signal (z-score),[13],-0.025
same,glycan array binding signal (z-score),[14],-0.072
same,glycan array binding signal (z-score),[15],-0.172
same,glycan array binding signal (z-score),[16],-0.321
same,glycan array binding signal (z-score),[17],-0.115
same,glycan array binding signal (z-score),[18],-0.06
same,glycan array binding signal (z-score),[19],-0.376
same,glycan array binding signal (z-score),[20],-0.223
same,glycan array binding signal (z-score),[21],-0.104
same,glycan array binding signal (z-score),[22],-0.233
same,glycan array binding signal (z-score),[23],-0.155
same,glycan array binding signal (z-score),[24],-0.225
same,glycan array binding signal (z-score),[25],-0.108
same,glycan array binding signal (z-score),[26],-0.13
same,glycan array binding signal (z-score),[27],-0.083
same,glycan array binding signal (z-score),[28],0.018
same,glycan array binding signal (z-score),[29],-0.124
same,glycan array binding signal (z-score),[30],-0.176
